The text below walks through data of PubChem BioAssay AID1645887 (National Center for Advancing Translational Sciences (NCATS), 2021).

Molecules are shown by their SMILES. Several values for one entry are separate records, joined by “and”; a condition that tells them apart may be missing. Identical values can stand only once. Screen size: about 16,000 compounds; about 40 (0.2%) were called active. Another 1% or so got no clear call; they are omitted. The call rests on the fitted dose curve; in most records, active means well fitted activation curve with a large enough effect; inconclusive means small, poorly fitted or top-dose-only effect, or another doubt; inactive means no such curve, though single readings can be large or run the other way. Some of the results follow.
On the % scale 0 is the no-effect control and ±100 the full control effect.

For the experiment, the target named is Rap guanine nucleotide exchange factor 4 (Homo sapiens) (UniProt Q8WZA2). Briefly: Validation qHTS for agonist of cAMP-regulated guanine nucleotide exchange factor 4 (EPAC2).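 Further: exchange makes BODIPY-GDP fluorescence drop when released from Rap1B; series mostly up to about 150 µM.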 To be noted: EPAC2 Rap1B BODIPY-GDP exchange, fluorescence; activation: stronger effect = higher value. A digest of the protocol: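 Signal normalized against 6.5 mM cAMP as agonist control. Mix of EPAC2 (100 nM), RAP1B-BODIPY-GDP (250 nM) and GDP (50 uM) was read kinetically at 480/540 nm, every 5 min over 30 min, after 5 min room-temperature incubation with compound.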
UniProt Q8WZA2, sequence (Q8WZA2 whole entry, looked up): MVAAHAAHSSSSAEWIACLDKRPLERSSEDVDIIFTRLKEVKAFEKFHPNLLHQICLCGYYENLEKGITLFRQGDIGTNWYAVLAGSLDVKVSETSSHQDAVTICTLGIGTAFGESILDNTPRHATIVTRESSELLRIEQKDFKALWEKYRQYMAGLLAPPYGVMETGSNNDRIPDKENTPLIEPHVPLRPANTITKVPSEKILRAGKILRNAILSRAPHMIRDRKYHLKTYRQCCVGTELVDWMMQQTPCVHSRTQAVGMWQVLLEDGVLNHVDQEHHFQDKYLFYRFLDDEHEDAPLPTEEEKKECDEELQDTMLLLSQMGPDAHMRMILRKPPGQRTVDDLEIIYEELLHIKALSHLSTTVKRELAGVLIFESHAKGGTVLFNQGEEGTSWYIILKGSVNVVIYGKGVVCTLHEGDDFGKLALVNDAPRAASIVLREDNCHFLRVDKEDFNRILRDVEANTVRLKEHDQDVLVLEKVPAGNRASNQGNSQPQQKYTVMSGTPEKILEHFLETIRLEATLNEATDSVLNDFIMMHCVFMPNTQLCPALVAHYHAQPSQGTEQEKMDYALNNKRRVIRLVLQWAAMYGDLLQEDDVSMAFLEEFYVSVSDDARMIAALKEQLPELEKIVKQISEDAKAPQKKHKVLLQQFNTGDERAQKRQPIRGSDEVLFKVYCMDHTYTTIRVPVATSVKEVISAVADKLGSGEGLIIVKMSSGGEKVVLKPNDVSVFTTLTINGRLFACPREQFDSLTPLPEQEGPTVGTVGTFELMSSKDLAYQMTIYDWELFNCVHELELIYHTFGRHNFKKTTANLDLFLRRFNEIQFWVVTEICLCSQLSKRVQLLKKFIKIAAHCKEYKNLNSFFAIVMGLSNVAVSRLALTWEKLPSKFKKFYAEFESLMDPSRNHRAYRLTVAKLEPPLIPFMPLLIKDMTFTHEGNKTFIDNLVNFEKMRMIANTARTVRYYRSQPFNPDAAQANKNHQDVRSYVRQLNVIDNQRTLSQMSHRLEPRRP
Background: In qHTS, concentration-response curves come from the screen itself.
Regarding `C[C@]12CCC(=O)C[C@@H]1CC[C@@H]1[C@@H]2CC[C@]2(C)[C@@H](O)CC[C@@H]12`, the activation is inactive: -5.55%.

For the compound `CCCCCCCCCc1ccc(O)cc1`, the activation was inactive: -49.8%. With `CC(=O)OC1C(=O)[C@]2(C)C(O)CC3OC[C@]3(OC(C)=O)C2[C@@H](OC(=O)c2ccccc2)[C@]2(O)CC(O)C(C)=C1C2(C)C` (stereo partly drawn) the figure was inactive: -19.5%; with `CC1C(=O)OC2O[C@]3(C)CC[C@H]4C(C)CCC1[C@]24OO3` (stereo partly drawn), inactive: -1.42%; with `O=C(OCCN1CCCCC1)C(O)(c1ccccc1)c1ccccc1`, inactive: -7.15%.

Consider `C[C@]12CCC3C(C=CC4=CC(=O)CC[C@]43C)C1CC[C@]2(O)CCC(=O)O` (stereo partly drawn), for which the activation was inactive: -1.81%. The value for `N#Cc1cccc(NC(=O)N2CCCC3(CCN(C(=O)Oc4ccccc4)CC3)C2)c1` was inactive: -7.22%; that for `[O]=[Cr](=[O])([OH])[O][Cr](=[O])(=[O])[OH]` was inactive: -19.4% and inactive: 2.41%; that for `c1ccc(CN2CCC3(CCNCC3)CC2)cc1` was inactive: -9.67%.

As to `CC(C)(C)NCC(O)c1cc(Cl)c(N)c(C(F)(F)F)c1` (stereo not drawn), the activation was inactive: -16.5%. With `CN(C)CCc1c[nH]c2ccc(O)cc12` the figure was inactive: -3.02%; with `COC([CH2][Hg])CNC(=O)c1ccccc1OCC(=O)O` (stereo not drawn), inactive: -0.449%. As for `COC(=O)N1CCC2(CCCN(C)C2)CC1`, the activation was inactive: -1.67%.

Take `C[C@@]12CCC(=O)C[C@@H]1CC[C@@H]1[C@@H]2CC[C@]2(C)C(=O)CC[C@@H]12`: the activation was inactive: -12%.

Turning to `CN1CC[C@@]2(CCCN(C(=O)c3ccncc3)C2)C1`, the activation was inactive: -14.8%. Turning to `CC1(C)OC1COc1c2occc2cc2ccc(=O)oc12` (stereo not drawn), the activation is inactive: -13.3%.

As for `CCCC[N+]1(C)[C@@H]2CC(OC(=O)[C@H](CO)c3ccccc3)C[C@H]1[C@@H]1O[C@@H]12` (stereo partly drawn), the activation is inactive: 14.7%. Turning to `C=CCN(C1=NCCN1)c1c(Cl)cccc1Cl`, the activation was inactive: -2.78% and inactive: -15.8%. With `CC[C@@]1(O)C(=O)OCc2c1cc1n(c2=O)Cc2cc3ccccc3nc2-1` the figure was inactive: 0.565% and inactive: -14.7% and inactive: -17.1%; with `CN(C)[C@@H]1C(=O)C(C(N)=O)=C(O)[C@@]2(O)C(=O)C3=C(O)c4c(O)ccc(Cl)c4[C@@](C)(O)[C@H]3C[C@@H]12`, inactive: -6.83%; with `N#C/C(=C/c1ccc(O)c(O)c1)C(N)=S`, inactive: -17.9%.

Consider `O=C(c1ccco1)N1CCC[C@@]2(CCN(Cc3ccncc3)C2)C1`, for which the activation is inactive: -6.57%.

On to `CN1CCN(C(=O)O[C@@H]2c3nccnc3C(=O)N2c2ccc(Cl)cn2)CC1`, for which the activation is inactive: -20.4%. The value for `CC[N+](CC)(CCCNC1=CC(=O)C(NCCC[N+](CC)(CC)Cc2ccccc2)=CC1=O)Cc1ccccc1` was inactive: -6.48% and inactive: 2.59%; that for `O=C1C[C@@H]2OCC=C3CN4CC[C@]56c7ccccc7N1[C@H]5[C@H]2[C@H]3C[C@H]46` was inactive: -16.8%; that for `O=C/C=C/c1ccccc1` was inactive: -5.14%. The value for `Clc1cccc(N2CCNCC2)c1` was inactive: -1.72% and inactive: 7.77%; that for `COc1ccc2[nH]cc(CCNCc3ccc(Br)cc3)c2c1` was inactive: 15.2%. The value for `CCCN(CCC)C(=O)Cc1c(-c2ccc(Cl)cc2)nc2ccc(Cl)cn12` was inactive: -8.75%. In the case of `Clc1ccc(CSC(Cn2ccnc2)c2ccc(Cl)cc2Cl)cc1` (stereo not drawn), the activation was inactive: -14.8% and inactive: 0.906%.

In the case of `O=C(CN1CCCCC1c1cccnc1)c1ccccc1` (stereo not drawn), the activation is inactive: 6.09%. Turning to `CN1c2ccccc2C(NCCCCCCC(=O)O)c2ccc(Cl)cc2S1(=O)=O` (stereo not drawn), the activation is inactive: 0.0396%. The value for `CCCCCCC(=O)O[C@H]1CC[C@H]2[C@@H]3CC[C@H]4CC(=O)C=C(C)[C@]4(C)[C@H]3CC[C@]12C` was inactive: -20.2%; that for `Oc1c(Br)cc(Br)cc1Br` was inactive: -33.5%; that for `COc1cc(C[C@H](C)N)c(OC)cc1Br` was inactive: -10.4%. Take `NCCc1cc(O)c(O)cc1O`: the activation is inactive: 18.6%.

As for `C#CCOS(=O)OC1CCCCC1Oc1ccc(C(C)(C)C)cc1` (stereo not drawn), the activation was inactive: -23.9%. With `CC(C)C1C(=O)N2CCCC2[C@]2(O)O[C@@](NC(=O)[C@@H]3C=C4c5cccc6[nH]cc(c56)C[C@H]4N(C)C3)(C(C)C)C(=O)N12` (stereo partly drawn) the figure was inactive: 13.6%. For the compound `CCC(=O)O[C@@](Cc1ccccc1)(c1ccccc1)[C@@H](C)CN(C)C`, the activation is inactive: -14.9%. With `CN1CC[C@@]23CCCCC2C1Cc1ccc(O)cc13` (stereo partly drawn) the figure was inactive: -9.33%; with `NNc1ccccc1`, inactive: -13.2%; with `C[C@]12Cc3cn4c(nc3C=C1CCC1C2CC[C@@]2(C)[C@H]1CC[C@@]2(O)C#N)nc1ccccc14` (stereo partly drawn), inactive: -3.78%. Take `C=C(C)c1cc2cc(C(C)=O)c(O)cc2o1`: the activation is inactive: -4.23% and inactive: -25.5%. The value for `CN1[C@H]2CC[C@@H]1[C@@H](C(=O)O)[C@@H](OC(=O)c1ccccc1)C2` was inactive: 5.23% and inactive: -2.66%; that for `Cc1cc(OC(=O)N2CCCCC2)c(C(C)C)cc1[N+](C)(C)C` was inactive: -5.78%; that for `CC(=O)O[C@@H]1C[C@@]2(C)C(c3ccoc3)C[C@H]3O[C@]32[C@]2(C)C(=O)C(O)=C3C(C)(C)C(=O)C=C[C@]3(C)C12` (stereo partly drawn) was inactive: 6.07%.

For `CC(C)OC(=O)Nc1cccc(Cl)c1`, the activation is inactive: -17.9%. With `c1ccc2nc(N3CCNCC3)ccc2c1` the figure was inactive: 6.75% and inactive: -5.41% and inactive: -15.7%. The value for `Clc1ccc(CO/N=C(\Cn2ccnc2)c2ccc(Cl)cc2Cl)c(Cl)c1` was inactive: 14.4%. With `C=C[C@H]1CN2CCC1C[C@@H]2C(O)c1ccnc2ccccc12` (stereo partly drawn) the figure was inactive: -19.9%; with `C[C@@H](N)C(=O)c1ccccc1`, inactive: -7.1%; with `F/C(COc1ccc2c(c1)[nH]c1ccccc12)=C1/CN2CCC1CC2`, inactive: -15.2%. For `O=C1NCN(c2ccccc2)C12CCN(CC1COc3ccccc3O1)CC2` (stereo not drawn), the activation is inactive: 0.612% and inactive: -9.94% and inactive: -8.61%.
